The source of these data is the supplement of paper PMC9446081.

The campaign covered roughly 39,000 compounds. About 220 (0.56%) showed activity. The list shows a part of the results.
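Also: static incubation at 37 °C against the wild-type strain, values averaged over two biological replicates.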

For this assay, the system named is Escherichia coli K-12 BW25113. The assay is described as follows: relative growth (OD600 normalised to plate interquartile mean) (fraction); higher = less growth inhibition, active = 0.2 or less. To be noted: 50 µM; LB; incubation time: overnight (16-24 h).
As for `COc1ccc(S(=O)(=O)Nc2ccc3c(c2)C(=O)N([C@H](C)CO)C[C@@H](C)[C@H](CN(C)Cc2ccc(-c4ccccc4)cc2)O3)cc1`, the relative growth was inactive: 1.04.

Regarding `COc1ccc(S(=O)(=O)N(C)C[C@H]2Oc3ccc(NC(=O)CCCN(C)C)cc3CC(=O)N([C@H](C)CO)C[C@H]2C)cc1`, the relative growth was inactive: 0.973.

Consider `Cc1noc(C)c1NC(=O)Nc1cccc2c1O[C@H](CN(C)C(=O)Nc1ccc(C(F)(F)F)cc1)[C@@H](C)CN([C@H](C)CO)C2=O`, for which the relative growth is inactive: 0.99.

On to `COc1ccc2c3c([nH]c2c1)[C@@H](CO)N(C[C@]13CCN(CC1)C(=O)c1cnccn1)C(=O)c1cnccn1`, for which the relative growth was inactive: 0.988.

For `CCS(=O)(=O)N1C[C@]2(CCN(CC2)C(=O)Nc2c(noc2C)C)c2c(n(c3cc(ccc23)OC)C)[C@H]1CO`, the relative growth is inactive: 0.983.

Turning to `CCc1nnc(SCC(=O)OC)[nH]1`, the relative growth is inactive: 0.928.

As for `CN(C)CC(=O)N[C@@H]1CC[C@@H](CCNC(=O)C2CC2)O[C@@H]1CO`, the relative growth was inactive: 0.991.

Consider `CC(C)NC(=O)N(C)C[C@@H]1Oc2c(NC(=O)NC3CCCCC3)cccc2C(=O)N([C@H](C)CO)C[C@@H]1C`, for which the relative growth is inactive: 0.983.

In the case of `C[C@@H]1CN([C@@H](C)CO)C(=O)CCCn2cc(nn2)CO[C@H]1CN(C)C(=O)c1ccc(N2CCN(C)CC2)cc1`, the relative growth is inactive: 1.01.

For `O=C(C[C@@H]1CC[C@H]2[C@@H](COC[C@@H](O)CN2S(=O)(=O)c2cccc(Cl)c2)O1)NCc1ccc2c(c1)OCO2`, the relative growth is inactive: 0.991.

Turning to `O=C(C[C@H]1CC[C@H]2[C@@H](COC[C@@H](O)CN2S(=O)(=O)c2cccc(Cl)c2)O1)NCCCN1CCOCC1`, the relative growth was inactive: 1.01.

Take `COc1ccc(NC(=O)Nc2ccc3c(c2)C(=O)N([C@@H](C)CO)C[C@@H](C)[C@@H](CN(C)C(=O)Nc2ccccc2)OCCCC[C@H](C)O3)cc1`: the relative growth was inactive: 1.02.

`C[C@H](CO)N1C[C@H](C)[C@@H](CN(C)Cc2ccc(Cl)c(Cl)c2)Oc2c(NC(=O)CCCCCC(=O)Nc3ccccc3N)cccc2C1=O`: the relative growth is inactive: 1.02.

For the compound `C[C@@H]1CN([C@H](C)CO)C(=O)c2cccc(NC(=O)c3ccncc3)c2O[C@H]1CN(C)Cc1ccc(C(=O)O)cc1`, the relative growth is inactive: 0.973.

On to `C[C@H]1CN([C@@H](C)CO)C(=O)c2cc(C#CCN(C)C)cnc2O[C@H]1CN(C)S(=O)(=O)c1ccccc1`, for which the relative growth is inactive: 0.997.

Take `COc1cccc(NC(=O)N(C)C[C@@H]2Oc3cc(C#Cc4ccncc4)ccc3S(=O)(=O)N([C@@H](C)CO)C[C@H]2C)c1`: the relative growth is inactive: 1.03.

With `COc1ccc(NC(=O)N(C)C[C@H]2Oc3cc(Br)ccc3S(=O)(=O)N([C@H](C)CO)C[C@@H]2C)cc1`, the relative growth was inactive: 0.95.

On to `C[C@@H]1CN([C@H](C)CO)C(=O)Cc2cc(NC(=O)Cc3cn(C)c4ccccc34)ccc2O[C@@H]1CN(C)Cc1ccc(C(F)(F)F)cc1`, for which the relative growth was inactive: 1.05.

With `CC(C)NC(=O)N(C)C[C@@H]1OCCCC[C@@H](C)Oc2ccc(NC(=O)Nc3cccc4ccccc34)cc2C(=O)N([C@@H](C)CO)C[C@H]1C`, the relative growth was inactive: 1.02.

For `COCC#Cc1ccc2c(c1)O[C@H](CN(C)S(=O)(=O)c1ccc(OC)cc1)[C@@H](C)CN([C@@H](C)CO)S2(=O)=O`, the relative growth was inactive: 0.998.

Take `COc1ccc(NC(=O)Nc2ccc3c(c2)C(=O)N([C@H](C)CO)C[C@H](C)[C@@H](CN(C)S(=O)(=O)c2ccccc2)OCCCC[C@@H](C)O3)cc1`: the relative growth was inactive: 0.994.

`CC(C)NC(=O)Nc1ccc2c(c1)CC(=O)N([C@H](C)CO)C[C@@H](C)[C@H](CN(C)Cc1ccc(Oc3ccccc3)cc1)O2`: the relative growth is inactive: 0.963.

For `CCNC(=O)[C@@H]1[C@@H](CO)[C@@H]2Cn3c(ccc(-c4ccccc4OC)c3=O)[C@@H]2N1S(C)(=O)=O`, the relative growth was inactive: 0.989.

Take `COc1ccc(S(=O)(=O)N[C@H]2CC[C@@H](CC(=O)N3CCN(c4ccccc4)CC3)O[C@@H]2CO)cc1`: the relative growth is inactive: 1.03.

`C[C@@H]1CCCCO[C@@H](CN(C)S(=O)(=O)c2cn(C)cn2)[C@@H](C)CN([C@H](C)CO)C(=O)c2cc(NS(=O)(=O)c3ccc(F)cc3)ccc2O1`: the relative growth was inactive: 0.999.

Consider `Fc1ccc(-c2n[nH]c(=S)o2)cc1`, for which the relative growth is inactive: 0.932.

In the case of `Cc1noc(C)c1NC(=O)Nc1cccc2c1O[C@@H](CN(C)Cc1ccc(-c3ccccc3)cc1)[C@@H](C)CN([C@@H](C)CO)C2=O`, the relative growth was inactive: 1.03.

With `CC(C)CC#Cc1ccc2c(c1)O[C@@H](CN(C)CC1CCOCC1)[C@H](C)CN([C@@H](C)CO)S2(=O)=O`, the relative growth was inactive: 0.999.

With `C[C@H](CO)N1C[C@H](C)[C@@H](CN(C)Cc2ccc(C(=O)O)cc2)OCCCC[C@H](C)Oc2ccc(NC(=O)Nc3cccc4ccccc34)cc2C1=O`, the relative growth is inactive: 1.05.

As to `CC(C)NC(=O)N(C)C[C@H]1Oc2ccc(NC(=O)Nc3ccc4c(c3)OCO4)cc2CC(=O)N([C@H](C)CO)C[C@@H]1C`, the relative growth was inactive: 1.01.

Turning to `C[C@@H]1CN([C@H](C)CO)C(=O)Cc2cc(NC(=O)Cn3cnnn3)ccc2O[C@H]1CN(C)CC1CCCCC1`, the relative growth was inactive: 0.97.

`CO[C@H]1CN(C)C(=O)c2ccc(NS(=O)(=O)CC(F)(F)F)cc2OC[C@H](C)N(C(=O)c2ccc3c(c2)OCO3)C[C@@H]1C`: the relative growth was inactive: 0.97.

`O=C(C[C@@H]1CC[C@@H]2[C@H](COC[C@H](O)CN2S(=O)(=O)c2ccc(F)cc2)O1)NCCN1CCCCC1`: the relative growth is inactive: 0.987.

As to `[O-][NH2+]N(CCO)CCO`, the relative growth was inactive: 0.981.

With `C[C@@H]1CN([C@@H](C)CO)C(=O)c2c(c3ccccc3n2C)-c2ccccc2CO[C@@H]1CN(C)C(=O)NC1CCCCC1`, the relative growth is inactive: 1.

Regarding `COc1ccc(-c2cnc3c(c2)C(=O)N([C@H](C)CO)C[C@H](C)[C@H](CN(C)C(=O)C2CCOCC2)O3)cc1`, the relative growth was inactive: 0.986.

Turning to `COCC(=O)N1C[C@H](C)[C@@H](OC)CN(C)C(=O)c2ccc(NC(=O)c3ccc(F)cc3)cc2OC[C@H]1C`, the relative growth is inactive: 0.985.

As for `COc1ccc(NC(=O)N(C)C[C@H]2OCCCC[C@H](C)Oc3ccc(NS(=O)(=O)c4cccs4)cc3C(=O)N([C@H](C)CO)C[C@@H]2C)cc1`, the relative growth was inactive: 0.999.

Take `C[C@H](CO)N1C[C@H](C)[C@@H](CN(C)C(=O)Nc2ccc3c(c2)OCO3)Oc2c(NC(=O)C3CC3)cccc2C1=O`: the relative growth was inactive: 0.995.

`C[C@@H]1CN([C@@H](C)CO)C(=O)c2cccc(NC(=O)Nc3cccc4ccccc34)c2O[C@@H]1CN(C)Cc1ccc(Cl)c(Cl)c1`: the relative growth is inactive: 1.01.

Turning to `Cc1cc(Cl)cc2sc(N(Cc3ccccn3)C(=O)c3ccc(S(=O)(=O)N4CCCC4)cc3)nc12`, the relative growth was inactive: 1.04.

For the compound `C[C@H](CO)N1C[C@H](C)[C@H](CN(C)C(=O)NC2CCCCC2)Oc2ccc(NS(C)(=O)=O)cc2C1=O`, the relative growth was inactive: 0.995.

Regarding `O=S(=O)(c1ccc(-n2cnnn2)cc1)N1CCNCC1`, the relative growth is inactive: 0.947.

As to `COc1ccc(S(=O)(=O)N[C@@H]2CC[C@H](CC(=O)N3CCC(Cc4ccccc4)CC3)O[C@H]2CO)cc1`, the relative growth is inactive: 0.994.

As to `C[C@@H]1CCCCO[C@H](CN(C)C(=O)Nc2cccc3ccccc23)[C@@H](C)CN([C@H](C)CO)C(=O)c2cc(N(C)C)ccc2O1`, the relative growth is inactive: 1.02.

With `C[C@@H]1OC2=C(Cl)C(=O)N3CCC[C@@H]3C[C@]21O`, the relative growth was inactive: 0.991.

For the compound `COc1ccc(S(=O)(=O)N(C)C[C@@H]2OCCCC[C@@H](C)Oc3ccc(NC(=O)Nc4c(C)noc4C)cc3C(=O)N([C@@H](C)CO)C[C@H]2C)cc1`, the relative growth is inactive: 0.96.

Take `O=NN(CCCl)C(=O)NCCCl`: the relative growth is inactive: 1.12.

In the case of `COc1ccc(S(=O)(=O)N(C)C[C@H]2OCCCC[C@@H](C)Oc3ccc(NC(=O)Nc4ccc(F)cc4)cc3C(=O)N([C@@H](C)CO)C[C@@H]2C)cc1`, the relative growth was inactive: 1.06.

Take `NCC[C@@H]1CC[C@H](NC(=O)C2CCCC2)[C@H](CO)O1`: the relative growth was inactive: 0.969.

Take `COc1ccc(NC(=O)N2C[C@@H](O)COC[C@H]3O[C@H](CC(=O)NC4Cc5ccccc5C4)CC[C@@H]32)cc1`: the relative growth was inactive: 0.981.

Take `C[C@H]1CN([C@@H](C)CO)C(=O)c2cc(NS(=O)(=O)c3ccc(Cl)cc3)ccc2O[C@H]1CN(C)S(C)(=O)=O`: the relative growth was inactive: 0.978.

`CCOC(=O)c1ncn2c1CN(C)C(=O)c1cc(F)ccc1-2`: the relative growth was inactive: 1.03.

As for `Cn1cnc(S(=O)(=O)N2C[C@H](O)COC[C@H]3O[C@H](CC(=O)NC4CCC4)CC[C@@H]32)c1`, the relative growth was inactive: 0.99.

Regarding `Cn1nccc1C(=O)NCCN`, the relative growth was inactive: 1.02.

Turning to `CO[C@@H]1CN(C)C(=O)c2ccc(NS(C)(=O)=O)cc2OC[C@H](C)N(C(=O)CN(C)C)C[C@H]1C`, the relative growth is inactive: 0.996.

For `COCC(=O)N1C[C@@H](C)[C@H](OC)CN(C)C(=O)c2ccc(NC(=O)Nc3cccc(F)c3)cc2OC[C@H]1C`, the relative growth is inactive: 0.973.

On to `COc1cccc(NC(=O)C[C@H]2CC[C@@H]3[C@@H](COc4ccc(NC(=O)C5CCOCC5)cc4C(=O)N3C)O2)c1`, for which the relative growth is inactive: 0.988.

For the compound `C[C@@H]1CN([C@@H](C)CO)C(=O)c2cc(C#CCN(C)C)cnc2O[C@@H]1CN(C)S(=O)(=O)c1ccccc1`, the relative growth is inactive: 0.998.

On to `CC(C)Cc1ccc([C@@H](C)c2nc(-c3cccs3)no2)cc1`, for which the relative growth is inactive: 1.

With `CC(C)NC(=O)Nc1ccc2c(c1)CC(=O)N([C@@H](C)CO)C[C@@H](C)[C@@H](CN(C)S(=O)(=O)c1cn(C)cn1)O2`, the relative growth was inactive: 1.01.

Regarding `COCC(=O)N1C[C@@H](C)[C@H](OC)CN(C)C(=O)c2ccc(NC(=O)c3cc(C)on3)cc2OC[C@H]1C`, the relative growth is inactive: 0.988.
